According to the supplement of paper PMC10115384:
Human monoclonal antibodies (heavy:light variable regions, translated from the printed DNA). IC50 against SARS-CoV-2 spike pseudoviruses, on VSV particles in 293T-ACE2 cells (24 h) or MLV particles in HeLa-ACE2 cells (72 h); lower = stronger; >1.0 µg/ml as printed. No active / inactive call per row; the paper counts an IC50 of 0.4 µg/ml or less on any variant as neutralizing. Only 98 of the paper's 459 antibodies have neutralization values; the two systems are not on one scale.

B1: ADI-67679 (protein)
chain 1: EVQLVETGGGLIQPGGSLRLSCAVSGFIVSRNYMSWVRQAPGKGLEWVSVIYSGGSTFYADSVKGRFTISRDDSNNMMYLQMNSLRADDTAVYYCARDLAGPGLFDHWGQGTLVTVSS
chain 2: DIQMTQSPSSLSASVGDRVTITCQASQGISNFLNWYQQKPGKAPKLLIYDASILERGVPSRFSGSGSGTDFTLTISGLQPEDIATYYCQQYDNVPSITFGQGTRLEIK
B2: ADI-67481 (protein)
chain 1: EVQLVESGGGLIQPGGSLRLSCAASGVTVSSNYMSWVRQAPGKGLEWVSVIYSGGTTFYADSVKGRFTISRDNSKNTLYLQMNSLRAEDTAVYYCARDLDVMGGFDYWGQGTLVTVSS
chain 2: DIQLTQSPSFLSASVGDRVTITCRASQGMSNFLAWYQQKPGKAPKLLIYAASTLQSGVPSRISGSGSGTEFTLTISSLQPEDFATYYCQELNSYPRTFGQGTKVEIK
B3: ADI-67854 (protein)
chain 1: QVQLQESGPGLVKPSQTLSLTCTVSGDSISSGSSYWSWIRQHPGEGLEWIGYISYGGSSYYNPSLKSRVTISVDTSKNQFSLRLTSVTAADTAIYYCASGLWSGFYYFDYWGQGTLVTVSS
chain 2: EIVLTQSPGTLSLSPGERATLSCRASQSVRSSYLAWYQQKPGQAPRLLIYGASNRATGIPDRFSGSGSGTDFIFIISRLEPEDFAVYYCQQYGSLPLTFGGGTKVEIK
B4: ADI-67726 (protein)
chain 1: QVQLVQSGAEVKKPGASVKVSCKASGYTFTSYEINWVRQATGQGLEWMGRMNPNSGYTDYAQKFQGRLTLTRNTSISTAYMELSRLRSEDTAVYYCATKRVQVPRRYYYYMDLWGKGTTVTVSS
chain 2: DIVMTQSPLSLPVTPGEPASISCRSSQSLLHSHGYNYLDWYLQKPGQSPHLLIYMGSNRASGVPDRFSGSGSGTDFTLKISRVEAEDVGVYYCMQSLQTPLTFGGGTKVEIK
B5: ADI-67467 (protein)
chain 1: QVQLVQSGAEVKKPGSSVKVSCKASGDTFSIYAFSWARQAPGQGLEWMGGTIPSLDSVNYAQKFQGRVTITADESTSTAFMELNSLRSEDTAVYYCATAHVAYGDYVPSDYWGQGTLVTVSS
chain 2: EIVLTQSPGTLSLSPGERATLSCRASQSVSSNYLAWYQQKPGQAPRLVIYGASSRATGIPDRFSGSGSGTDFTLTISRLEPDDFAVYYCQQYGTSPPWTFGQGTKVEIK
B6: ADI-67649 (protein)
chain 1: QVQLQESGPRLVRPAGTLSLTCAVSGGSIRSSNWRSWVRQPPGKGLEWIGEIYHTGGTNYNPSLKSRVTISVDKSTNQFSLRLDSVTAADTAVYYCARDIRQDDCSTTRCPEYWGQGTLVTVSS
chain 2: EIVLTQSPATLSLSPGERATLSCRASQSVTSSLAWYQQKPGQAPRLLIYDASYRATGIPARFSSSGSGTDFTLTISSLEPEDFAVYYCQQRSNWPPTFGPGTKVDIK
B7: ADI-67935 (protein)
chain 1: QVQLQESGPGLVKPSQTLSLTCTVSGGSLSSGGYYWTWIRQHPGKGLEWIGHIYYTGVTYYNSSLKSRVTISEDKSKNQFSLKLTSVTAADTAVYYCARGPYASGSFDSWGQGTLVTVSS
chain 2: EIVLTQSPGTLSLSPGERATLSCRASQSVSSNYLAWYQQKPGQAPRLLIYVASSRATGIPDRFSGSGSGTDFTLTISRLEPEDSGVYYCHHYGSSGDTFGQGTKVEIK
B8: ADI-67730 (protein)
chain 1: QVQLQESGPGLVKPSETLSLTCTVSGGSIKTYYWAWIRQPPGRGLEWIGYIYYSETTNFNPSLKSRVTMSFDTSKNQFSMKLSSVTAADTAVYYCARQSQGPYDFLTGKIYDAFDIWGQGTMVTVSS
chain 2: DIQMTQSPSSLSASVGDRITITCRASQSISKFLNWYQQKPGKAPKLLIYAASSLQSGVPLRFNASGSGTDFTLTISSLQPEDFAIYYCQQSYSTPQTFGPGTKVDIK
B9: ADI-67945 (protein)
chain 1: QVQLVESGGGVVQPGRSRRVSCAASGFIFNTYAMHWVRQAPGNGLEWVAVISYDGNNKYYADSVRGRFTISRDNSKNTLYLQMHSLRAEDTAVYYCARGGGSYFHAFDIWGQGTMVTVSS
chain 2: DIVMTQSPDSLAVSLGERATINCKSSQSVLYSSNNKNYLAWYQQKPGQPPKLLIYWASTRDSGVPDRFSGSGSGTDFTLTISSLQAEDVAVYYCQEYYSNPFTFGPGTKVDIK
B10: ADI-67466 (protein)
chain 1: QVQLVESGGGLVKPGGSLRLSCAASGFTFSDYYMSWIRQAPGEGLEWISLITSSGSAIYYADSVKGRFTISRDNAENSLYLQIHTLRAEDTAVYYCARDQGRLTGTTTNFDCWGQGTLVTVSS
chain 2: DIQMTQSPSSLSASVGDRVTLTCRASQSISSFLNWYQQKPGKAPKLLIYAASRSQSGVPSRFSGSGSGTDFTLTINGLQPEDFASYYCQQSNSIPLTFGGGTKVEIK
B11: ADI-67757 (protein)
chain 1: QVQLVQSGAEVKKPGASVKVSCKASGYAFTTYDINWVRQATGQGLEWMGWTNPNSGNTGYTQKFQGRITMTRNNSISTAYMELSSLRSEDAAVYYCARGGSLKGNRRPVASSYYYNGMDVWGQGTTVTVSS
chain 2: EIVMTQSPATLSVSPGDRATLSCRTSQSVDSYLAWYQQKPGQAPRLLIYGASTRATGIPARFSGSGSGTEFTLTISSLQSEDFAVFYCQQYNNWPLTFGGGTKVEIK
B12: ADI-67628 (protein)
chain 1: QVQLVESGGGVVQPGRSLRLSCGASGFTFGSYNMHWVRQAPGKGLEWVAVIWHDGSNKYYADSVKGRFTISRDNSKSTLYLQMNSLSPEDTSVYYCARDTEITNFDMDVWGQGTTVTVSS
chain 2: DVVMTQSPLSLPVTLGQPASISCRSSQSLVYIDGNTYLNWFLQRPGQSPRRLIYKVSNRDSGVPDRFSGSGSGTDFTLKISRVEAEDVGLYYCMQGTHWPPTFGQGTKVEIK
B13: ADI-67474 (protein)
chain 1: QVQLVQSGAEVKKPGASVKVSCKASGYTFNSYGINWVRQAPGQGLEWMGWISGYNHNTDYAQKFQDRVTMTTDTSTSTAYMDLRSLRSDDTAVYYCARDPGSFGTVADYWGQGTLVTVSS
chain 2: EIVLTQSPGTLSLSPGERATLSCRARQSVSSSFLAWYQQKPGQAPRLLIYGASSRATGIPDRFSGSGSGTDFTLTISRLEPEDFAVYYCQQYGYSVYTFGQGTKLEIK
B14: ADI-67478 (protein)
chain 1: EVQLVESGGGLVQPGKSLRLSCAGSGFTFSSYAMSWVRQAPGKGLQWVSTISGGGGGTYYADSVKGRFTISRDNSKNTLYLQMDSLRAEDTAIYYCATHRGTVFFLTWGQGTLVTVSS
chain 2: EIVLTQSPGTLSLSPGERATLSCRASQSVTSNYLAWYQQKPGQAPRLLIYGASSRATGIPDRFSGSGSGTDFTLTINRLEPEDFAVYHCQQYGGSPPTFGQGTKVEIK
B15: ADI-67652 (protein)
chain 1: QVQLVQSGAEVKKPGASVKVSCKASGYTFTGHFIHWVRQAPGQGLEWMGWINPMSGNTNYAQTFQGRVTMTRDTSIQTVYMELSRLRSDDTAVYYCARDRNWAIFGVESDVWGKGTTVTVSS
chain 2: QSALTQPASVSGSPGQSITISCTGTSSDIRTYNLVSWYQQHPGNAPKLMIYEVNKRPSGISHRFSGSKSGHTASLTISGLQAEDEADYYCCSYADSSAWVFGGGTKLTVL
B16: ADI-67483 (protein)
chain 1: QVQLVQSGAEVKKPGSSMKISCKASGGAFSIYTIAWVRQAPGQGLEWMGGIIPMSGTPNYAQNFQGRVTITADESTTTVYMHLSSLRSEDTAVYFCARDYRYCSGNSCSFWFDPWGQGTLVTVSS
chain 2: DIQMTQSPSSLSASVGDRITITCRASQSISNYLNWYQQKPGKAPKVLIYTASSLQSGVPSRFSGSGSGTDFTLTISSLQPEDFATYFCQQSYSTPRTFGQGTKVEIK
B17: ADI-67680 (protein)
chain 1: QVQLVESGGGVVHPGRSLRLSCAASGFTFKTYGMHWVRQAPGKGLEWVAVIWYDGSKKYYVDSVKGRFTISRDNSKNTMYLQMNSLRAEDTAVYFCARDGTIAVAGTFDRFFDLWGRGTLVTVSS
chain 2: DIQMTQSPSSLSASVGDRITITCQASQDISNYLNWYQQKPEKAPKLLIYDASNLEAGVPSRFSGRRSGTDFTFTISSLQPEDIATYYCQQYHILPFTFGPGTKVDIK

biological target: SARS-CoV-2 Beta spike pseudovirus; assay: pseudovirus neutralization IC50; higher = weaker neutralization; settings: system: VSV particle, 293T-ACE2 cells
Description: (§1)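 Single-round reporter pseudovirus mixed with dilutions of yeast-made human IgG and put on ACE2-bearing cells; IC50 from the dose curve.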

Question: B1 was tested. Which “pseudovirus neutralization IC50” value did it give?
Answer: > 1 µg/mL

Question: How did the “pseudovirus neutralization IC50” value turn out when B2 was run?
Answer: > 1 µg/mL

Question: For B5, which “pseudovirus neutralization IC50” value is on record?
Answer: > 1 µg/mL

Question: How did the “pseudovirus neutralization IC50” value turn out when B6 was run?
Answer: > 1 µg/mL

Question: How did the “pseudovirus neutralization IC50” value turn out when B10 was run?
Answer: > 1 µg/mL

Question: For B12, which “pseudovirus neutralization IC50” value is on record?
Answer: > 1 µg/mL

Question: With B13 as the binder, how does the “pseudovirus neutralization IC50” value read?
Answer: > 1 µg/mL

Question: How did the “pseudovirus neutralization IC50” value turn out when B14 was run?
Answer: > 1 µg/mL

Question: B15 was tested. Which “pseudovirus neutralization IC50” value did it give?
Answer: > 1 µg/mL

Question: With B16 as the binder, how does the “pseudovirus neutralization IC50” value read?
Answer: > 1 µg/mL

Question: With B17 as the binder, how does the “pseudovirus neutralization IC50” value read?
Answer: > 1 µg/mL

biological target: SARS-CoV-2 Delta spike pseudovirus; assay: as above; settings: system: VSV particle, 293T-ACE2 cells
Description: as §1

Question: How did the “pseudovirus neutralization IC50” value turn out when B1 was run?
Answer: 0.0599 µg/mL

Question: With B2 as the binder, how does the “pseudovirus neutralization IC50” value read?
Answer: 0.123 µg/mL

Question: For B3, which “pseudovirus neutralization IC50” value is on record?
Answer: > 1 µg/mL

Question: Which “pseudovirus neutralization IC50” value does the source give for B4 here?
Answer: 0.0235 µg/mL

Question: With B5 as the binder, how does the “pseudovirus neutralization IC50” value read?
Answer: > 1 µg/mL

Question: How did the “pseudovirus neutralization IC50” value turn out when B6 was run?
Answer: 0.0302 µg/mL

Question: B7 was tested. Which “pseudovirus neutralization IC50” value did it give?
Answer: 0.039 µg/mL

Question: How did the “pseudovirus neutralization IC50” value turn out when B8 was run?
Answer: > 1 µg/mL

Question: For B9, which “pseudovirus neutralization IC50” value is on record?
Answer: > 1 µg/mL

Question: For B11, which “pseudovirus neutralization IC50” value is on record?
Answer: 0.0302 µg/mL

Question: For B12, which “pseudovirus neutralization IC50” value is on record?
Answer: > 1 µg/mL

Question: B13 was tested. Which “pseudovirus neutralization IC50” value did it give?
Answer: > 1 µg/mL

Question: For B14, which “pseudovirus neutralization IC50” value is on record?
Answer: > 1 µg/mL

Question: B15 was tested. Which “pseudovirus neutralization IC50” value did it give?
Answer: 0.302 µg/mL

Question: Which “pseudovirus neutralization IC50” value does the source give for B16 here?
Answer: > 1 µg/mL

Question: B17 was tested. Which “pseudovirus neutralization IC50” value did it give?
Answer: 0.238 µg/mL

biological target: SARS-CoV-2 Omicron BA.1 spike pseudovirus; assay: as above; settings: system: MLV particle, HeLa-ACE2 cells
Description: as §1

Question: For B1, which “pseudovirus neutralization IC50” value is on record?
Answer: 0.12 µg/mL

biological target: SARS-CoV-2 index (Wuhan-Hu-1) spike pseudovirus; assay: as above; settings: system: MLV particle, HeLa-ACE2 cells
Description: as §1

Question: For B1, which “pseudovirus neutralization IC50” value is on record?
Answer: 0.0203 µg/mL

Question: Which “pseudovirus neutralization IC50” value does the source give for B2 here?
Answer: 0.00579 µg/mL

Question: With B15 as the binder, how does the “pseudovirus neutralization IC50” value read?
Answer: 0.00754 µg/mL

same assay, conditions: system: VSV particle, 293T-ACE2 cells

Question: Which “pseudovirus neutralization IC50” value does the source give for B1 here?
Answer: 0.0584 µg/mL

Question: Which “pseudovirus neutralization IC50” value does the source give for B2 here?
Answer: 0.0589 µg/mL

Question: Which “pseudovirus neutralization IC50” value does the source give for B4 here?
Answer: 0.0258 µg/mL

Question: For B5, which “pseudovirus neutralization IC50” value is on record?
Answer: > 1 µg/mL

Question: For B6, which “pseudovirus neutralization IC50” value is on record?
Answer: 0.012 µg/mL

Question: With B7 as the binder, how does the “pseudovirus neutralization IC50” value read?
Answer: 0.048 µg/mL

Question: Which “pseudovirus neutralization IC50” value does the source give for B8 here?
Answer: > 1 µg/mL

Question: How did the “pseudovirus neutralization IC50” value turn out when B9 was run?
Answer: > 1 µg/mL

Question: How did the “pseudovirus neutralization IC50” value turn out when B10 was run?
Answer: > 1 µg/mL

Question: With B11 as the binder, how does the “pseudovirus neutralization IC50” value read?
Answer: 0.0216 µg/mL

Question: With B13 as the binder, how does the “pseudovirus neutralization IC50” value read?
Answer: > 1 µg/mL

Question: Which “pseudovirus neutralization IC50” value does the source give for B14 here?
Answer: 0.813 µg/mL

Question: For B15, which “pseudovirus neutralization IC50” value is on record?
Answer: 0.17 µg/mL

Question: How did the “pseudovirus neutralization IC50” value turn out when B16 was run?
Answer: > 1 µg/mL

Question: Which “pseudovirus neutralization IC50” value does the source give for B17 here?
Answer: 0.111 µg/mL
